# Test results reported in the supplement of paper PMC8728848.
# This is one part of the list.
# B1: LecB PA14 (Pseudomonas aeruginosa) (protein)
# chain: MATQGVFTLPANTQFGVTAFANSAGTQTVNVQVNNETVATFTGQSTNNAIIGSKVLNSGGGGKVQILVSVNGRSSDLVSAQVILANELNFALVGSEDSTDNDYNDAVVVINWPLG
# How the values were obtained:
# Assay in all cases: glycan array binding signal (z-score within array); higher = stronger binding
# Conditions in all cases: glycan notation: IUPAC condensed, linker removed
# [1] = target: GlcNAc(b1-4)GlcNAc(b1-4)GlcNAc(b1-4)GlcNAc(b1-4)GlcNAc(b1-4)GlcNAc
# How it was run: (§1)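 From the Consortium for Functional Glycomics database, 3228 arrays were curated, keeping only those whose protein sequence was available. Binding is given as a within-array Z-score averaged across arrays sharing a protein sequence and across linkers. Negative Z-scores can be read as non-binding.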
# [2] = target: GlcNAc(b1-4)[GlcNAc(b1-6)]GalNAc
# How it was run: as §1
# [3] = target: GlcNAc(b1-6)Gal(b1-4)GlcNAc
# How it was run: as §1
# GlcNAc(b1-6)GalNAc = target: GlcNAc(b1-6)GalNAc
# How it was run: as §1
# [4] = target: GlcNAc6S(b1-3)Gal(b1-4)GlcNAc
# How it was run: as §1
# Kdn(a2-3)Gal(b1-3)GalNAc = target: Kdn(a2-3)Gal(b1-3)GalNAc
# How it was run: as §1
# Kdn(a2-3)Gal(b1-3)GlcNAc = target: Kdn(a2-3)Gal(b1-3)GlcNAc
# How it was run: as §1
# Kdn(a2-3)Gal(b1-4)Glc = target: Kdn(a2-3)Gal(b1-4)Glc
# How it was run: as §1
# Kdn(a2-3)Gal(b1-4)GlcNAc = target: Kdn(a2-3)Gal(b1-4)GlcNAc
# How it was run: as §1
# [5] = target: Kdn(a2-3)Gal(b1-4)[Fuc(a1-3)]GlcNAc
# How it was run: as §1
# Kdn(a2-6)Gal(b1-4)GlcNAc = target: Kdn(a2-6)Gal(b1-4)GlcNAc
# How it was run: as §1
# [6] = target: Man(a1-2)Man(a1-2)Man(a1-3)Man
# How it was run: as §1
# [7] = target: Man(a1-2)Man(a1-2)Man(a1-6)[Man(a1-3)]Man
# How it was run: as §1
# Man(a1-2)Man(a1-3)Man = target: Man(a1-2)Man(a1-3)Man
# How it was run: as §1
# [8] = target: Man(a1-2)Man(a1-3)[Man(a1-2)Man(a1-6)]Man
# How it was run: as §1
# [9] = target: Man(a1-2)Man(a1-3)[Man(a1-2)Man(a1-6)]Man(a1-6)[Man(a1-2)Man(a1-2)Man(a1-3)]Man
# How it was run: as §1
# [10] = target: Man(a1-2)Man(a1-3)[Man(a1-2)Man(a1-6)]Man(a1-6)[Man(a1-2)Man(a1-2)Man(a1-3)]Man(b1-4)GlcNAc(b1-4)GlcNAc
# How it was run: as §1
# [11] = target: Man(a1-2)Man(a1-3)[Man(a1-6)]Man(a1-6)[Man(a1-2)Man(a1-3)]Man(b1-4)GlcNAc(b1-4)GlcNAc
# How it was run: as §1
# [12] = target: Man(a1-2)Man(a1-6)[Man(a1-3)]Man(a1-6)[Man(a1-2)Man(a1-2)Man(a1-3)]Man
# How it was run: as §1
# [13] = target: Man(a1-2)Man(a1-6)[Man(a1-3)]Man(a1-6)[Man(a1-2)Man(a1-2)Man(a1-3)]Man(b1-4)GlcNAc(b1-4)GlcNAc
# How it was run: as §1
# Man(a1-3)[Man(a1-6)]Man = target: Man(a1-3)[Man(a1-6)]Man
# How it was run: as §1
# [14] = target: Man(a1-3)[Man(a1-6)]Man(a1-6)[Man(a1-2)Man(a1-3)]Man(b1-4)GlcNAc(b1-4)GlcNAc
# How it was run: as §1
# [15] = target: Man(a1-3)[Man(a1-6)]Man(a1-6)[Man(a1-3)]Man
# How it was run: as §1
# [16] = target: Man(a1-3)[Man(a1-6)]Man(a1-6)[Man(a1-3)]Man(b1-4)GlcNAc(b1-4)GlcNAc
# How it was run: as §1
# [17] = target: Man(a1-3)[Man(a1-6)]Man(b1-4)GlcNAc(b1-4)GlcNAc
# How it was run: as §1
# [18] = target: Man(a1-3)[Man(a1-6)]Man(b1-4)GlcNAc(b1-4)[Fuc(a1-6)]GlcNAc
# How it was run: as §1
# Man(a1-6)Man = target: Man(a1-6)Man
# How it was run: as §1
# Man(b1-4)GlcNAc = target: Man(b1-4)GlcNAc
# How it was run: as §1
# MurNAc(b1-4)GlcNAc = target: MurNAc(b1-4)GlcNAc
# How it was run: as §1
# Neu5Ac(a2-3)Gal = target: Neu5Ac(a2-3)Gal
# How it was run: as §1
# [19] = target: Neu5Ac(a2-3)Gal(b1-3)GalNAc
# How it was run: as §1
# [20] = target: Neu5Ac(a2-3)Gal(b1-3)GalNAc(b1-3)Gal(a1-4)Gal(b1-4)Glc
# How it was run: as §1
# [21] = target: Neu5Ac(a2-3)Gal(b1-3)GalNAc(b1-4)Gal(b1-4)Glc
# How it was run: as §1
# [22] = target: Neu5Ac(a2-3)Gal(b1-3)GalNAc(b1-4)[Neu5Ac(a2-3)]Gal(b1-4)Glc
# How it was run: as §1
# [23] = target: Neu5Ac(a2-3)Gal(b1-3)GalNAc(b1-4)[Neu5Ac(a2-8)Neu5Ac(a2-3)]Gal(b1-4)Glc
# How it was run: as §1
# [24] = target: Neu5Ac(a2-3)Gal(b1-3)GalNAc6S
# How it was run: as §1
# [25] = target: Neu5Ac(a2-3)Gal(b1-3)GlcNAc
# How it was run: as §1
# [26] = target: Neu5Ac(a2-3)Gal(b1-3)GlcNAc(b1-2)Man
# How it was run: as §1
# [27] = target: Neu5Ac(a2-3)Gal(b1-3)GlcNAc(b1-2)Man(a1-3)[GlcNAc(b1-4)][Neu5Ac(a2-3)Gal(b1-3)GlcNAc(b1-2)Man(a1-6)]Man(b1-4)GlcNAc(b1-4)GlcNAc
# How it was run: as §1
# [28] = target: Neu5Ac(a2-3)Gal(b1-3)GlcNAc(b1-2)Man(a1-3)[Neu5Ac(a2-3)Gal(b1-3)GlcNAc(b1-2)Man(a1-6)]Man(b1-4)GlcNAc(b1-4)GlcNAc
# How it was run: as §1
# [29] = target: Neu5Ac(a2-3)Gal(b1-3)GlcNAc(b1-2)[Neu5Ac(a2-3)Gal(b1-3)GlcNAc(b1-4)]Man(a1-6)[Neu5Ac(a2-3)Gal(b1-3)GlcNAc(b1-2)Man(a1-3)]Man(b1-4)GlcNAc(b1-4)GlcNAc
# How it was run: as §1
# [30] = target: Neu5Ac(a2-3)Gal(b1-3)GlcNAc(b1-3)Gal(b1-3)GlcNAc
# How it was run: as §1
# [31] = target: Neu5Ac(a2-3)Gal(b1-3)GlcNAc(b1-3)Gal(b1-4)GlcNAc
# How it was run: as §1
# [32] = target: Neu5Ac(a2-3)Gal(b1-3)GlcNAc(b1-3)GalNAc
# How it was run: as §1
# [33] = target: Neu5Ac(a2-3)Gal(b1-3)GlcNAc(b1-6)GalNAc
# How it was run: as §1
binder,measurement,setting,value
B1,glycan array binding signal (z-score),[1],-0.39
same,glycan array binding signal (z-score),[2],-0.69
same,glycan array binding signal (z-score),[3],-0.186
same,glycan array binding signal (z-score),GlcNAc(b1-6)GalNAc,-0.212
same,glycan array binding signal (z-score),[4],-0.543
same,glycan array binding signal (z-score),Kdn(a2-3)Gal(b1-3)GalNAc,1.52
same,glycan array binding signal (z-score),Kdn(a2-3)Gal(b1-3)GlcNAc,0.509
same,glycan array binding signal (z-score),Kdn(a2-3)Gal(b1-4)Glc,-0.194
same,glycan array binding signal (z-score),Kdn(a2-3)Gal(b1-4)GlcNAc,-0.618
same,glycan array binding signal (z-score),[5],0.594
same,glycan array binding signal (z-score),Kdn(a2-6)Gal(b1-4)GlcNAc,-0.512
same,glycan array binding signal (z-score),[6],1.26
same,glycan array binding signal (z-score),[7],2.31
same,glycan array binding signal (z-score),Man(a1-2)Man(a1-3)Man,0.523
same,glycan array binding signal (z-score),[8],-0.117
same,glycan array binding signal (z-score),[9],5.22
same,glycan array binding signal (z-score),[10],-0.658
same,glycan array binding signal (z-score),[11],0.847
same,glycan array binding signal (z-score),[12],-0.022
same,glycan array binding signal (z-score),[13],1.92
same,glycan array binding signal (z-score),Man(a1-3)[Man(a1-6)]Man,1.73
same,glycan array binding signal (z-score),[14],0.46
same,glycan array binding signal (z-score),[15],-0.57
same,glycan array binding signal (z-score),[16],1.82
same,glycan array binding signal (z-score),[17],-0.309
same,glycan array binding signal (z-score),[18],0.507
same,glycan array binding signal (z-score),Man(a1-6)Man,-0.545
same,glycan array binding signal (z-score),Man(b1-4)GlcNAc,-0.354
same,glycan array binding signal (z-score),MurNAc(b1-4)GlcNAc,-0.313
same,glycan array binding signal (z-score),Neu5Ac(a2-3)Gal,-1.05
same,glycan array binding signal (z-score),[19],-0.314
same,glycan array binding signal (z-score),[20],-0.704
same,glycan array binding signal (z-score),[21],-0.506
same,glycan array binding signal (z-score),[22],-0.117
same,glycan array binding signal (z-score),[23],-0.048
same,glycan array binding signal (z-score),[24],-0.688
same,glycan array binding signal (z-score),[25],-0.082
same,glycan array binding signal (z-score),[26],0.059
same,glycan array binding signal (z-score),[27],0.268
same,glycan array binding signal (z-score),[28],-0.761
same,glycan array binding signal (z-score),[29],-0.042
same,glycan array binding signal (z-score),[30],-0.29
same,glycan array binding signal (z-score),[31],-0.04
same,glycan array binding signal (z-score),[32],-0.584
same,glycan array binding signal (z-score),[33],-0.484
